Screen size: about 310,000 compounds; about 2,200 (0.71%) showed an effect of 50% or more. Effects have a minus sign here. Some of the results follow.

Sequence of human ether-à-go-go-related gene (hERG) potassium channel (Q12809 whole entry, looked up): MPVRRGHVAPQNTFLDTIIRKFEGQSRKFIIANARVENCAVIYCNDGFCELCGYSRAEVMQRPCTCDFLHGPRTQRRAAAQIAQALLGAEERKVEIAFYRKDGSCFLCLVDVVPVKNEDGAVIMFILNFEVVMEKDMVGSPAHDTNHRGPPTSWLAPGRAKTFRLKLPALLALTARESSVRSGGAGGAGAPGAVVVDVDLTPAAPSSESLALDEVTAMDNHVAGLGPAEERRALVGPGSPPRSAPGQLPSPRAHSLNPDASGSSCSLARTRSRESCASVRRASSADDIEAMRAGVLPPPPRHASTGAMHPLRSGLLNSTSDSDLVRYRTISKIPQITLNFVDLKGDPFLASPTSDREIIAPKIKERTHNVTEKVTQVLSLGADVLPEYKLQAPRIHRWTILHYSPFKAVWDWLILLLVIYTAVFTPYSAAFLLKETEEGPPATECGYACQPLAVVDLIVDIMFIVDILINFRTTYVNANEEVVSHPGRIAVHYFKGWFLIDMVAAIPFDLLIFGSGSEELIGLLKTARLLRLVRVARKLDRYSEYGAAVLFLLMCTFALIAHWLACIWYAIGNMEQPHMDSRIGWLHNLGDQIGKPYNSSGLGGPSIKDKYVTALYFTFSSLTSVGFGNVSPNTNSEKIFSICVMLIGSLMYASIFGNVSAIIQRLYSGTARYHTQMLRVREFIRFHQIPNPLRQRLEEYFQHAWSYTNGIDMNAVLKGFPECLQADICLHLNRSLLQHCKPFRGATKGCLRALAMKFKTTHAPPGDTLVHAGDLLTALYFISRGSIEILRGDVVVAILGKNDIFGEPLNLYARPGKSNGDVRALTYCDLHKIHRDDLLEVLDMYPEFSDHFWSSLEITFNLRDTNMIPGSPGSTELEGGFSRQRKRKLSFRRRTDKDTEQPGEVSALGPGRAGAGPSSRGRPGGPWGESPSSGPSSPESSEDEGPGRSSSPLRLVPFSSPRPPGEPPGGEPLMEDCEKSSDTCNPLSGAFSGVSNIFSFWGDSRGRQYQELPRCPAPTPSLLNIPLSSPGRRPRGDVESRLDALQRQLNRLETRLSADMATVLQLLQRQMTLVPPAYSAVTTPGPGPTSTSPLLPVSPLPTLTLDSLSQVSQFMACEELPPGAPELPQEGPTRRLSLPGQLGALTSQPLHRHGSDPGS

The assay has as its target human ether-à-go-go-related gene (hERG) potassium channel (human, UniProt Q12809). The experiment in a line: primary screen, population patch clamp on CHO cells stably expressing hERG.
For the compound `C=CCn1c(SCC(=O)Nc2sc3c(c2C#N)CCC3)nnc1C1COc2ccccc2O1` (stereo not shown), the “hERG current change (%, negative = inhibition) at 1uM” value turned out to be 12.3%.

For the compound `CCn1c2ccccc2c2nnc(SCC(N)=O)nc21`, the “hERG current change (%, negative = inhibition) at 1uM” value is 6.41%.

For `CCOc1ccc(N(C)S(=O)(=O)c2ccc(C)c(C(=O)OCC(=O)c3c[nH]c4ccccc34)c2)cc1`, the “hERG current change (%, negative = inhibition) at 1uM” value amounted to 10.4%.

Consider `Cc1cc(Cl)ccc1OCC(=O)NNC(=O)c1cnccn1`, for which the “hERG current change (%, negative = inhibition) at 1uM” value worked out at 13.3%.

In the case of `COc1ccc(NC(=O)CCC(=O)N2CCN(S(=O)(=O)c3ccc(C)cc3)CC2)c(OC)c1`, the “hERG current change (%, negative = inhibition) at 1uM” value is -2.37%.

With `O=c1[nH]c(=O)n(Cc2ccccc2)c2c1C(C(F)(F)F)(C(F)(F)F)N=C(c1ccco1)N2`, the “hERG current change (%, negative = inhibition) at 1uM” value is recorded as 3.6%.

As to `O=C(Nc1ccc(Br)cc1)c1ccc(Br)c(S(=O)(=O)Nc2cccnc2)c1`, the “hERG current change (%, negative = inhibition) at 1uM” value amounted to 0.697%.

As to `C#CCSc1nnc(CNS(=O)(=O)c2ccc(Br)cc2)n1C`, the “hERG current change (%, negative = inhibition) at 1uM” value is -0.803%.

Regarding `Cc1ccc(N2C(=O)c3ccccc3C2C(=O)c2cc(C)ccc2O)cc1` (stereo not shown), the “hERG current change (%, negative = inhibition) at 1uM” value came out at 4.77%.

As to `Cc1noc(C)c1S(=O)(=O)N1CCN(Cc2ccc3c(c2)OCO3)CC1`, the “hERG current change (%, negative = inhibition) at 1uM” value is 2.42%.

As for `NC1=NC(=O)C(Cc2cccc(Cl)c2)S1` (stereo not shown), the “hERG current change (%, negative = inhibition) at 1uM” value worked out at 5.75%.

As for `COc1cccc(-c2nn(-c3ccc(C)cc3)cc2C(=O)N2CCc3cc(OC)c(OC)cc3C2)c1`, the “hERG current change (%, negative = inhibition) at 1uM” value stood at 10.5%.

Consider `CC(C)(C)C(=O)NNC(=O)c1ccc(Oc2cc(Cl)cc(Cl)c2)o1`, for which the “hERG current change (%, negative = inhibition) at 1uM” value turned out to be 10.7%.

Regarding `CCOc1ccc(-n2c(=O)c3c4c(sc3n(CC(=O)NCC3CCCO3)c2=O)CCCC4)cc1` (stereo not shown), the “hERG current change (%, negative = inhibition) at 1uM” value is 0.186%.

In the case of `COc1ccc(OC)c(C2N(c3ccccn3)C(=O)C3CCCN32)c1` (stereo not shown), the “hERG current change (%, negative = inhibition) at 1uM” value is given as 10.6%.

For `O=C(CCc1nc2ccccc2c(=O)[nH]1)Nc1ccc(Cl)c(Cl)c1`, the “hERG current change (%, negative = inhibition) at 1uM” value is listed as 4.57%.

In the case of `CC1CCN(C(=O)CSc2ccc(-c3ccc(F)cc3)nn2)CC1`, the “hERG current change (%, negative = inhibition) at 1uM” value is given as -12.5%.

Turning to `Cc1ccsc1C(=O)NC(C)c1ccc2c(c1)OCO2` (stereo not shown), the “hERG current change (%, negative = inhibition) at 1uM” value turned out to be 0.988%.

Take `Cc1cc(=O)[nH]c(N2CCOCC2)n1`: the “hERG current change (%, negative = inhibition) at 1uM” value turned out to be 18.3%.

For the compound `Cc1cc(C(=O)Nc2sc3c(c2C#N)CCC(C)C3)cs1` (stereo not shown), the “hERG current change (%, negative = inhibition) at 1uM” value is reported as 0.433%.

As to `Cc1cc(OCc2cn3cccnc3n2)ccc1Cl`, the “hERG current change (%, negative = inhibition) at 1uM” value is -0.328%.

`CC(C)C(=O)Nc1ccc(C(=O)Nc2ccc(Br)cc2F)cc1`: the “hERG current change (%, negative = inhibition) at 1uM” value was 15.1%.

As to `COc1cccc(CN(C(=O)c2cnccn2)C(C(=O)NC2CCCCC2)c2cc(OC)c(OC)c(OC)c2)c1` (stereo not shown), the “hERG current change (%, negative = inhibition) at 1uM” value amounted to 9.01%.

Regarding `O=C(NCc1cccnc1)Nc1cccc(Cl)c1`, the “hERG current change (%, negative = inhibition) at 1uM” value stood at 15.8%.

In the case of `CCc1ccc(N2C(=O)c3cc(N4CCOCC4)c([N+](=O)[O-])cc3C2=O)cc1`, the “hERG current change (%, negative = inhibition) at 1uM” value was 10.6%.

Turning to `CC(C)Nc1ccc(C(CC(N)=O)NC(=O)c2ccccc2)cc1[N+](=O)[O-]` (stereo not shown), the “hERG current change (%, negative = inhibition) at 1uM” value is recorded as 10.6%.

Regarding `Nc1nc(COC(=O)c2ccc3c(c2)OCCO3)nc(Nc2ccccc2)n1`, the “hERG current change (%, negative = inhibition) at 1uM” value was 11.2%.

With `CC(=O)c1ccc(NC(=O)COc2ccc3c(c2)OCO3)cc1`, the “hERG current change (%, negative = inhibition) at 1uM” value came out at 9.98%.

For the compound `Cc1cc(C)cc(NC(=O)c2cnn(-c3ccccc3)c2C2CCNCC2)c1.Cl`, the “hERG current change (%, negative = inhibition) at 1uM” value came out at 4.32%.

For `COC(=O)Nc1ccc(S(=O)(=O)N2CCN(C)CC2)cc1`, the “hERG current change (%, negative = inhibition) at 1uM” value was determined as 8.25%.

`COc1ccc(-c2nc(NC(=O)Cn3ccc(C(F)(F)F)n3)sc2C)cc1`: the “hERG current change (%, negative = inhibition) at 1uM” value was determined as 15.2%.

`CC1CN(C)C(C)C/C1=N\Oc1ccc([N+](=O)[O-])cc1.Cl` (stereo not shown): the “hERG current change (%, negative = inhibition) at 1uM” value is recorded as -84.5%.

Consider `Cc1ccccc1N1C(=O)NC(=O)/C(=C/c2ccc(N3CCOCC3)o2)C1=O`, for which the “hERG current change (%, negative = inhibition) at 1uM” value is 10.6%.

On to `Cc1onc(-c2ccccc2Cl)c1C(=O)NCc1ccc(N2CCCC2=O)cc1`, for which the “hERG current change (%, negative = inhibition) at 1uM” value is reported as 14.6%.

As to `Cc1ccc(-c2cc(-c3ccccc3)[nH]c(=S)c2C#N)cc1`, the “hERG current change (%, negative = inhibition) at 1uM” value was 17.6%.

Take `Cc1ccc(S(=O)(=O)c2c(C)nn(C(C)(C)C)c2OC(=O)c2ccco2)cc1`: the “hERG current change (%, negative = inhibition) at 1uM” value worked out at 3.27%.

As for `O=C(C1=C(O)C(=O)N(CCCN2CCOCC2)C1c1ccccn1)c1cc2ccccc2o1` (stereo not shown), the “hERG current change (%, negative = inhibition) at 1uM” value was 3.18%.

For the compound `O=C(O)c1cccc(Cn2c(Cl)c(/C=N/NC(=O)c3ccccc3O)sc2=O)c1`, the “hERG current change (%, negative = inhibition) at 1uM” value turned out to be 5.59%.

For `Cc1ccc(-c2nn(C)c(=O)c3ccccc23)cc1S(=O)(=O)NCCN1CCOCC1`, the “hERG current change (%, negative = inhibition) at 1uM” value came to 4.92%.

Turning to `O=C(NCCc1ccccc1)C1CCN(S(=O)(=O)c2cccc3nonc23)CC1`, the “hERG current change (%, negative = inhibition) at 1uM” value is recorded as -3.06%.

As to `COC(=O)c1cccc(NC(=O)CSc2nnc(C3CC3)n2C)c1`, the “hERG current change (%, negative = inhibition) at 1uM” value was 15.8%.

On to `CCc1ccccc1NC(=O)CN(C)C(=O)CSc1nnc(Nc2ccc(C)cc2)s1`, for which the “hERG current change (%, negative = inhibition) at 1uM” value is 1.6%.

Consider `O=C(COc1coc(CN2CCN(c3ccccc3)CC2)cc1=O)Nc1ccccc1F`, for which the “hERG current change (%, negative = inhibition) at 1uM” value was 13%.

The record behind these values is publication PMC4336329 (PLoS ONE, 2015).
